The list shows a part of the results.
T1: UNK ZnF1-3 (human, UniProt Q9C0B0 31-174)
T1 sequence: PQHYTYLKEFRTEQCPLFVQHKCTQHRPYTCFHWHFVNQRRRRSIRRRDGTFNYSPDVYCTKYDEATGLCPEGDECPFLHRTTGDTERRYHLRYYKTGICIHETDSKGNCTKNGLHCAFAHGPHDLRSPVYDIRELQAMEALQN

B1: chr15:63447868:63447869:-_ENSG00000185088_ENST00000411926|hu_mus|FALSE|FALSE (ssRNA)
RNA: GGGAGUUCUACAGUCCGACGAUCGCCUUCUGUGAGCCUGGCUUUUCCUCCUGUGGGCUGGCACAACACAGUUGAACAACCCACACAAAGAACCACAGUCUGUGCAUGGCUGAAAACUGUAGUAAUCUUGUAGCAACCUGGACACAACAGAGGAUUGAGCAUCA
B2: chr14:90871293:90871294:+_ENSG00000198668_ENST00000553542|hu_hu|FALSE|FALSE (ssRNA)
RNA: GGGAGUUCUACAGUCCGACGAUCUGUAUUAAUCAUUAGCAAAUGGAACUUUAAGGAGUCCUUAUCAUUAAGGUAGUACAAGUAUUUAUAUUGUAAAACUGAUGUGUAGCUUGAUCUUUAGGGGACAGGACCACCAACCAAUACCAACAGAGGAUUGAGCAUCA
B3: chr12:39756943:39756944:-_ENSG00000139116_ENST00000544797|hu_mus|hu_hu_hu_mus_False|68_108 (ssRNA)
RNA: GGGAGUUCUACAGUCCGACGAUCGGUUUGGCUAUUACCCCCAAGGGAAUCCUGCAAGAGUCUUGUCAGCUUGGAAUCUCUGUAAGGGACAUGGGUGGCUCUCUUGCUCUUGUCCCCCAAGGCGCUGAUUACAUUCCCAAGAGCCAACAGAGGAUUGAGCAUCA
B4: 41762567_41763466_1074_CDS_ENSG00000137815_ENST00000389629|human|control|control (ssRNA)
RNA: GGGAGUUCUACAGUCCGACGAUCGUGACACCAGCGUUCUAGCUUAUGCCGUGAUAAUCGAACCCGAUUCAAUUCUUCAGGUAAGGAAACUGGUUGGGAUUUGGGAGGGAUCUCUUCUUUCUCCUCUUCUUCAUCAGACGAUGACAACAGAGGAUUGAGCAUCA
B5: chr7:56126341:56126342:+_ENSG00000146731_ENST00000540286|hu_mus|hu_hu_hu_mus_True|8_108 (ssRNA)
RNA: GGGAGUUCUACAGUCCGACGAUCCAUAUUUCUCCUUUUGGCUCUGCGCAGAGCUACGAUCCCUUCUUUCGCAAGGGCAUCUAAGGAAAAGGGGUCAAUCCCCUUUUGAUUAAUAACGACAAAUCCUUUAUCUGAAUCACCACACAACAGAGGAUUGAGCAUCA
B6: chr7:125984895:125984896:+_ENSMUSG00000030982_ENSMUST00000106553|mus_mus|FALSE|FALSE (ssRNA)
RNA: GGGAGUUCUACAGUCCGACGAUCGUAGAAGGCAAGAGCUUAAAACCAAUCUGUAUAAAAGUAAAAAUAACAAAAACUUCUAAAUUCCAGGAAGAGUUAAUGGCAGCCAAGCAGAUCUUCCAGGAUGUGGCACUGGGACUCCCGCAACAGAGGAUUGAGCAUCA
B7: chr2:177202359:177202360:+_ENSG00000128654_ENST00000249442|hu_hu|motif|central (ssRNA)
RNA: GGGAGUUCUACAGUCCGACGAUCCAUUCAAGUAAAACAUAUUUCAAAAGUUAAGACUCCUGAGACUAACACAUAACUCGGUGACAGCCUGCCUUUACCACGAUCUUCAAAAUAGUGCUGUUCAAUUCUCCUACAGAAAGCAAGCAACAGAGGAUUGAGCAUCA
B8: chrX:71549400:71549401:+_ENSMUSG00000019087_ENSMUST00000019231|mus_hu|mus_mus_mus_hu_False|18_28 (ssRNA)
RNA: GGGAGUUCUACAGUCCGACGAUCGCAGUAGGAAGAGGGAAGCUCUUCAGUCCAGUGCGCUGCAGGGUGGGAAAGCAACAACACGGACACCGUCCCACCCUCAACCCUCUCAGGUGUAUGUCACACAACAAUCUGGGUCAAAGACAACAGAGGAUUGAGCAUCA
B9: 25565639_25568521_1711_CDS_ENSG00000170558_ENST00000399380|human|control|control (ssRNA)
RNA: GGGAGUUCUACAGUCCGACGAUCCUCUUGAGGUAACACUUGAGGGGCAUUGUCAUUAAUAUCAAGUAAAUAGAUCUGCAGCGUUCCUGUUCCACUCAUAGGAGGAAUUCCAUUGUCAGAAGCAAGGAAAGUAGCAUUAUAUAUCAACAGAGGAUUGAGCAUCA
B10: 55414891_55415011_8049_CDS_ENSMUSG00000021488_ENSMUST00000099490|mouse|control|control (ssRNA)
RNA: GGGAGUUCUACAGUCCGACGAUCGUCUUGCCCUCUUCCAAGAGACCAGCAAGUUUGUGCCAAAGUUUGUGUGCCCCCAGCAGACCAGCAAGCCUGGGCUAGUGUUUGUCCAGCAACUAUAGGCCAAAGCCCUGCCCCUGGUGACAACAGAGGAUUGAGCAUCA
B11: chr6:38652254:38652255:-_ENSG00000124767_ENST00000373365|hu_hu|hu_hu_hu_mus_False|58_88 (ssRNA)
RNA: GGGAGUUCUACAGUCCGACGAUCCGAGAACUUCAUAGCAGGGAAGUCACAUUUUUGCAGGAGGGUCAGUCCAAGAACUCUAGUAUAAAAAUCCAGGGACUUCUUAGGAUCCUUAAUUCUUAGCAUCGUUUGCUGCAGUAGAAACAACAGAGGAUUGAGCAUCA
B12: chr11:100879890:100879891:+_ENSMUSG00000019302_ENSMUST00000044721|mus_mus|FALSE|FALSE (ssRNA)
RNA: GGGAGUUCUACAGUCCGACGAUCCUGGAAAACAUUCACAUCUGGAUUUAAAUCCCGAAAUUGGACCUUCCCAAGCUCUCCUAAUUCACUGACACAGCAAUAAGCAGCUUCAGACUGUAGAAAUAGCUGGGCCAGCGUCAUCUCCAACAGAGGAUUGAGCAUCA
B13: chr5:177632888:177632889:+_ENSG00000197451_ENST00000358344|hu_hu|motif|central (ssRNA)
RNA: GGGAGUUCUACAGUCCGACGAUCUAUUGUACAGUCAACGACCUCUCCAAAUUUAGUAAAAUAGUCUUUUAAAUCUUUUUUGCGGGUAUCCCAGCUCAGGCCACCAACGAACAUUUUUCCCGCGUCCUCCUCGUUCUUGCUGGCCAACAGAGGAUUGAGCAUCA
B14: chr3:150459880:150459881:-_ENSG00000181788_ENST00000312960|hu_mus|FALSE|FALSE (ssRNA)
RNA: GGGAGUUCUACAGUCCGACGAUCGGAAGAUGUACUGAAUAAAACAUCUAUUAAAAAACCUUUAUUAAACAUAGAGCGCUAUGCCCAAAUAACUUCCCAGGGUUAGGAAAGCCUCCUGGAGCCUCACUGACAGCAUGUAGAUAUCAACAGAGGAUUGAGCAUCA
B15: 47748213_47748333_168_3pUTR_ENSMUSG00000023988_ENSMUST00000024783|mouse|control|control (ssRNA)
RNA: GGGAGUUCUACAGUCCGACGAUCGCCACUGAGAGAUCACAGUGCCCCCCAGCGUUAGGAGGCCGGAAGUUCCUCAUCUAUUACUCUCAGGAAGAGCUUCGGGACCUAUAGCAGGAGCCCCCAAAUUCUCAGGUAAUCUCAUUACAACAGAGGAUUGAGCAUCA
B16: chrX:140365796:140365797:-_ENSMUSG00000031285_ENSMUST00000033642|mus_mus|mus_mus_mus_hu_False|8_78 (ssRNA)
RNA: GGGAGUUCUACAGUCCGACGAUCCUUCUCAUUACUCAGUGCCUGCAAGGUUCUGGUUCUGUAGAAGCUACAGUGGGCGCUGUGAGUGGGGCUAGGCAACCCAUUCAUCCGGGAGCCUCGCAUGUUCCUAGAUGCUUUAUCUCUCAACAGAGGAUUGAGCAUCA
B17: 51264051_51265094_2089_3pUTR_ENSMUSG00000063273_ENSMUST00000029303|mouse|control|control (ssRNA)
RNA: GGGAGUUCUACAGUCCGACGAUCAUUUUUUUUCUCUUCUUCUAUCUGGGCUUUCUUUUGAGCUCUUCUUUGUUUAUUACGCAGUUUCUUUAGCUCUUUGUCAGACAUGUUUGCUGUAUCAGCCUCGUGUUCUUUGUUCUCAUCCAACAGAGGAUUGAGCAUCA
B18: 115928876_115943408_917_3pUTR_ENSMUSG00000028698_ENSMUST00000030464|mouse|control|control (ssRNA)
RNA: GGGAGUUCUACAGUCCGACGAUCAUUAUUUCCUCCCUUCCUCAAAGUCAAUGUAUAAUCCCCCUGCAUUUUCGUUGAGGCAUCACGAACUAAGAAGGUACCAUCUGGCAUGUCCCGCAAUUUGUCAUUUACCUCUUCCCUGGACAACAGAGGAUUGAGCAUCA
B19: chr14:78183846:78183847:+_ENSG00000119705_ENST00000557342|hu_hu|hu_hu_hu_mus_False|1_1 (ssRNA)
RNA: GGGAGUUCUACAGUCCGACGAUCUCUCAGAAAUCUUUCUUCAUCAGAUGUUUGAGCUCCGUGCAAAGCCUUUGCUCUUUGAGCUUGAACGUGGAUCUAUGGGAGGGAAAGCACUGUCAGAAAAGGUAAUUUUUUUUUCCGAAGCAACAGAGGAUUGAGCAUCA
B20: chr1:44183430:44183431:+_ENSMUSG00000041684_ENSMUST00000114709|mus_mus|FALSE|FALSE (ssRNA)
RNA: GGGAGUUCUACAGUCCGACGAUCUUUGUAGACUGAUGUUGCCUGGUUGAGGAAGGCAUAAUCUGAGCAGAUCGCAUAAAUUUUCUCUCGAGUGUGAGUCACUGGACAACUCGAUGGAUAAUGCCCAUCUCCUCUGGGCGCUAUCAACAGAGGAUUGAGCAUCA
B21: chr3:49759264:49759265:-_ENSG00000173540_ENST00000308388|hu_mus|FALSE|FALSE (ssRNA)
RNA: GGGAGUUCUACAGUCCGACGAUCCCCGAUAGACUUGUGGGGCAGCACGCUGGCUCCAUUGAGGUACAGUUCAUCAUUAACUAUGACAUCUUCACCCAGCACUGUUACAUUCUCCAUGCGCACCCAUUGGCCCACACGGCAGCGCAACAGAGGAUUGAGCAUCA
B22: 66783198_66785415_346_3pUTR_ENSG00000135720_ENST00000258198|human|control|control (ssRNA)
RNA: GGGAGUUCUACAGUCCGACGAUCUACCAGAACCAUCUUCACCGAAGACCAGGAUGUUCUUGCCGGACGGCAGCUUGGACCUGGCGCGGGUGGACACUUCGCUCAGAAUGGAGGACCAUAGGCUCUGGCCUUCCUCCUCCUCACCAACAGAGGAUUGAGCAUCA

target: T1, UNK ZnF1-3; assay: nsRBNS (natural sequence RNA bind-n-seq); RBNS binding buffer (assumed for nsRBNS): 25 mM Tris pH 7.5, 150 mM KCl, 3 mM MgCl2, 0.01% Triton X-100, 500 ug/ml BSA, 20 U/ml SUPERase-In, 4 C; UNK is unkempt and MSI1 is Musashi-1; names of the RNAs are library labels; protein concentration not given here; high values mean tight binding

Compared with B1, B2 is higher in binding signal: 0.874 enrichment R for the first, 1.1 enrichment R for the second.

Going from B3 to B4, the binding signal rises from 0.711 enrichment R to 0.749 enrichment R.

Going from B5 to B6, the binding signal rises from 0.875 enrichment R to 1.82 enrichment R.

Going from B7 to B8, the binding signal falls from 1.31 enrichment R to 0.71 enrichment R.

Going from B9 to B10, the binding signal falls from 2.39 enrichment R to 1.01 enrichment R.

Compared with B11, B12 is lower in binding signal: 1.35 enrichment R for the first, 0.618 enrichment R for the second.

Going from B13 to B14, the binding signal rises from 1.85 enrichment R to 2 enrichment R.

First: B15
Second: B16
The binding signal of the first is higher: 0.782 enrichment R for the first, 0.475 enrichment R for the second.

First: B17
Second: B18
The binding signal of the first is lower: 0.126 enrichment R for the first, 1.34 enrichment R for the second.

First: B19
Second: B20
The binding signal of the first is higher: 1.29 enrichment R for the first, 0.916 enrichment R for the second.

First: B21
Second: B22
The binding signal of the first is higher: 0.94 enrichment R for the first, 0.738 enrichment R for the second.
